Among all 210,000 compounds or so, about 5,900 (2.8%) were called active. The inconclusive results got no clear call from the source; some entries with a clear call stand among them for comparison. Calls follow the shape of the dose curve; as a rule, active = well fitted activation curve with a large enough effect; inconclusive = small, poorly fitted or top-dose-only effect; inactive = no such curve, though single readings can be large or run the other way. Potencies of inconclusive entries are doubtful fits and often do not repeat.
Experiment: qHTS Assay for Enhancers of SMN2 Splice Variant Expression; also: nearly all actives have a fitted effect of over 55% in size; as to activity change, positive = activation: % of control where 0% means no effect
Conditions: HEK293 SMN2-luciferase splicing reporter, luminescence, 30-36 h; activity change, positive = activation: at 46.1 µM (top of the series)
Method in brief: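 HEK293 cells carry an SMN2 […]–luciferase reporter in which exon 7 inclusion puts luciferase in frame. Cells were plated 10-12 h before compound addition, then incubated 30-36 h at 37C. ONE-Glo luminescence was read; sodium butyrate at 4.5 mM final served as control.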
Potency is read from the fitted curve at half-maximal effect; tags tell the direction and shape of the fitted curve.

SMILES	Potency	activity change, positive = activation
CCOC(=O)c1nn(-c2sc(C(=O)OC)c(C)c2C(=O)OC)cc1O	inconclusive: 2.82 µM [activator, single point]	
COc1ccc(C(=O)Nc2noc3ccccc23)cc1	inconclusive: 35.5 µM [activator, single point]	
Cc1cc(C(=O)COC(=O)c2nccnc2N)c(C)n1C	active: 11.2 µM	
CC(C)N1C(=O)C(Cc2nc3ccccc3c(=O)n2-c2ccccc2)c2ccccc21 (centres undefined)	inactive	
CCNC(=S)N1CCc2cc(OC)c(OC)cc2C1COc1ccccc1OC (centres undefined)	inconclusive: 28.2 µM [activator, partial curve, poor fit]	
COc1ccc(-n2cc(C(=O)c3ccccc3O)cn2)cc1	inconclusive: 22.4 µM [activator, single point]	
COc1ccc(N2C(=O)c3ccccc3NC23CCC(C)CC3)cc1 (centres undefined)	active: 10 µM	
C/C(=N\NC(=O)c1cc(Br)ccc1O)c1cccs1	active: 17.8 µM	
COc1ccccc1-n1nc(-c2ccccc2)c2cnc3cc(C(F)(F)F)ccc3c21	inactive	
C=CCNC(=S)N/N=C(\C)c1ccccn1	inactive	
O=C(CCCCn1c(=O)c2ccccc2n(CC(=O)NC2CCCC2)c1=O)NCc1ccco1	inconclusive: 0.0708 µM [activator, full curve, poor fit]	
O=C(/C=C/c1ccc2c(c1)OCO2)c1ccc[nH]1	active: 15.8 µM	
O=C1CCCC/C1=C\Nc1ccc(O)cc1	inconclusive: 15.8 µM [activator, partial curve]	
O=C(Nc1ccccc1)N1CCC(c2ccccc2)C1 (centres undefined)	active: 17.8 µM	
COc1cc(NC(=S)NC(=O)CC(C)C)ccc1NC(=O)c1cc2ccccc2o1	inactive	
CCOc1ccc(S(=O)(=O)NN)cc1	inconclusive: 3.55 µM [activator, full curve, poor fit]	
Cc1ccc(Oc2ccc(Cl)cc2NC(=O)c2cnccn2)cc1	inactive	
COC(=O)c1cc2occc2n1Cc1cccc(C)c1	inconclusive: 5.62 µM [activator, single point]	
COc1ccccc1CN1CCCCC1C(=O)O (centres undefined)	inconclusive: 0.0447 µM [activator, full curve, poor fit]	
CC1CCCCC1NC(=O)Cn1ncc2ccccc21 (centres undefined)	inactive	
O=C(c1cccc(S(=O)(=O)N2CCCC2)c1)N1CCN(c2ccccc2)CC1	inconclusive: 1.26 µM [activator, full curve, poor fit]	
C/C(=N/NC(=O)c1ccco1)c1cccnc1	inactive	
CCOc1ccc(Br)cc1S(=O)(=O)Nc1ccc(NC(=O)c2ccccc2C)cc1	inconclusive: 0.0158 µM [activator, full curve, poor fit]	
COC(=O)c1c(C)[nH]c(C)c1-c1ccccc1Cl	inactive	
O=C(Nc1ccc(Cl)cc1)Nc1ccc(N2CCOCC2)cc1	inconclusive: 20 µM [activator, partial curve, poor fit]	

SMILES	Potency	activity change, positive = activation
COC(=O)c1cc(-c2cccc(OC)c2)n[nH]1	inconclusive: 14.1 µM [activator, single point]	
COC(=O)Nc1nnc(-c2ccccc2Cl)s1	inconclusive: 11.2 µM [activator, partial curve]	
COc1ccc(C(=O)/C=C/Nc2ccc(NC(C)=O)cc2)cc1OC	inactive	
CCC(=O)Nc1nonc1-c1nc2ccccc2n1Cc1ccccc1	inconclusive: 15.8 µM [activator, partial curve, poor fit]	
O=C(CSc1ncn[nH]1)Nc1c(F)cc(F)cc1Br	inactive	
Cc1cccc(NC(=S)NC(=O)CCc2ccccc2)c1C	inconclusive: 0.0032 µM [activator, full curve, poor fit]	
N=S(=O)(O)Cc1noc2ccccc12	inactive	
N#CC1(C#N)C(c2ccccc2)OC23CCCCCC2C1(C#N)C(=N)O3 (centres undefined)	inactive	
COCCSc1nnc(NC(=O)CSc2ccccc2)s1	inactive	
Cc1oc(C(C)(C)C)cc1C(=O)Nc1cccc(C(=O)O)c1	inconclusive: 1.26 µM [activator, partial curve]	
O=C(OCC(=O)c1c[nH]c2ccccc12)C1=COCCO1	inconclusive: 25.1 µM [activator, single point]	
Cn1c(=O)n(C)c2cc(NS(=O)(=O)c3ccc(C(C)(C)C)cc3)c(NCc3ccccc3)cc21	active: 5.62 µM	
Cc1ccc(NC(=O)Cn2cc(C(=O)C3CCCCC3)c3ccccc32)c(C)c1	inactive	
O=C(NCC(O)c1ccccc1)c1cccc(S(=O)(=O)N2CCOCC2)c1 (centres undefined)	inconclusive: 11.2 µM [activator, partial curve, poor fit]	
CC(C)CC(c1nnnn1C1CCCC1)N1CCN(C(=O)c2ccco2)CC1 (centres undefined)	inconclusive: 0.01 µM [activator, full curve]	
CCCCNC(=O)c1nc2ncc(Br)cn2n1	inconclusive: 11.2 µM [activator, single point]	
Cc1ccc(/C=N/NC(=O)c2sccc2OCc2ccc(F)cc2)cc1	inconclusive: 14.1 µM [activator, partial curve]	
Cc1ccc(Nc2nc(N)nc(CSc3nnnn3-c3ccccc3)n2)cc1	inconclusive: 0.0794 µM [activator, full curve, poor fit]	
O=C(Nc1ccccc1)N1CCCC2CCCCC21 (centres undefined)	active: 11.2 µM	
[ClH+][Cu][ClH+].[Cu].[OH2+]c1ccc2ccccc2c1CN1CCCCC1.[OH2+]c1ccc2ccccc2c1CN1CCCCC1		inactive: -24.2% [at 9.22 µM]
COc1ccc(-n2c(SCC(=O)Nc3ncc(Cl)cc3Cl)nc3ccccc32)cc1	inconclusive: 6.31 µM [activator, single point]	
O=C(NC1CCCCC1)C(=S)NCCc1ccccc1	inconclusive: 0.0316 µM [activator, full curve, poor fit]	
O=C(CSc1ccccn1)Nc1ccc2c(c1)C(=O)c1ccccc1C2=O	active: 10 µM	
CCOC(=O)C1CCCN(S(=O)(=O)c2ccc(Br)c(OC)c2)C1 (centres undefined)	inconclusive: 6.31 µM [activator, partial curve, poor fit]	
